Laboratory results published in paper PMC6919601, “Identification of Plasmodium dipeptidyl aminopeptidase allosteric inhibitors by high throughput screening” (PLoS ONE, 2019).
Among all 110,000 compounds or so, about 230 (0.21%) showed an effect of 50% or more. The list shows a part of the results.

What follows are compounds tested against DPAP1 (Plasmodium falciparum, UniProt Q8IIJ9) (assay: primary screen, percent inhibition; read by cleavage of a fluorogenic dipeptide substrate; higher = more effect of the substance).
Chain of DPAP1 (Q8IIJ9 whole entry, looked up): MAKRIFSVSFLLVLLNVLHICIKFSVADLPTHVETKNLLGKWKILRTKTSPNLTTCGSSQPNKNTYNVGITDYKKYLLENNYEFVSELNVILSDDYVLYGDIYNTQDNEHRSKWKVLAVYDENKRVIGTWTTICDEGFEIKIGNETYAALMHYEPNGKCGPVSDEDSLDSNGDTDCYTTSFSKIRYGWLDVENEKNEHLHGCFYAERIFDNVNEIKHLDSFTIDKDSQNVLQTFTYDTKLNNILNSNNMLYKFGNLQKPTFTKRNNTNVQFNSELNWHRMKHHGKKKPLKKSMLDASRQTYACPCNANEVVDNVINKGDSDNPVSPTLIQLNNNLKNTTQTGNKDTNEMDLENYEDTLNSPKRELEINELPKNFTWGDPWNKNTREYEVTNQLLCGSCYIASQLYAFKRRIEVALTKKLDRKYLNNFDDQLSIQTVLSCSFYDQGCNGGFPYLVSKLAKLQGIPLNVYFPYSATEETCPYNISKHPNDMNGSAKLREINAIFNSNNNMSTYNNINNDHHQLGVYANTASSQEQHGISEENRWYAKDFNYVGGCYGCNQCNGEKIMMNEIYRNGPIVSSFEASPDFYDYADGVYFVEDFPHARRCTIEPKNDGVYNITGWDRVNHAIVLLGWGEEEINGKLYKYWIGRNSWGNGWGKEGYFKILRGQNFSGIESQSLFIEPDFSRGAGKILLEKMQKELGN
Set-up: species or system P. falciparum D10 trophozoite lysates; single well
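Note: 30 min substrate incubation versus DMSO and 10 µM JCP410 controls.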

Row | Structure (SMILES) | % Inhibition @ 10 uM
1 | Cc1cccc(NC(=O)NC(N)=O)c1 | -3.93%
2 | Cc1cc(/C=C2\SC(Nc3ccccc3)=NC2=O)c(C)n1-c1ccc(S(N)(=O)=O)cc1 | -0.992%
3 | CN(C)CCN(C)Cc1ccc(F)cc1F | 0.135%
4 | CC(Cc1ccccc1)NC(=O)/C=C/c1ccco1 (stereo not drawn) | 2.99%
5 | Cc1ccc2onc(CC(=O)NCCC3=CCCCC3)c2c1 | -1.38%
6 | Cc1ccc2oc(=O)c3cc(C(=O)N4CCN(Cc5ccccc5)CC4)sc3c2c1 | 1.38%
7 | CC(C)(C)c1ccc(C(=O)Nc2nc3ccccc3s2)cc1 | 1.25%
8 | Cc1ccc(NCc2ccc(OCC(=O)NC(C)(C)C)cc2)cc1C | -5.56%
9 | Clc1cccc(C2OCC3(CO2)COC(c2cccc(Cl)c2)OC3)c1 (stereo not drawn) | -0.48%
10 | CCOc1ccccc1NC(=O)c1cccc(C(=O)Nc2ccccc2OCC)n1 | 4.1%
11 | CCOc1ccc(-c2nc(O)c3c(n2)Oc2ccc(F)cc2C3)cc1 | 6.98%
12 | CSc1ccc(CCNC(=O)CSCc2cc(C(=O)C(F)(F)F)n(C)c2)cc1 | -0.0309%
13 | COc1ccc(Br)cc1CN1CCc2c([nH]c3ccccc23)C1 | -0.828%
14 | c1ccc(-c2ccc(CN3CCN(c4ccccc4)CC3)cc2)cc1 | -3.82%
15 | CCCc1[nH]nc2c1C(=O)C(C(=O)OC)C(C)(C)C2 (stereo not drawn) | -0.807%
16 | CC(C(=O)N1CCN(c2ccccn2)CC1)n1ncn2cccc2c1=O (stereo not drawn) | -4.59%
17 | CC(C)(C)NC(=O)c1ccc2c(c1)C(=O)N(Cc1ccco1)C2=O | 2.03%
18 | CC(=O)c1ccc(S(=O)(=O)NCc2cn3c(C)csc3n2)cc1 | 5.47%
19 | CCc1nnc2sc(NC(=O)C3CCCCC3)nn12 | -0.659%
20 | O=C(CCc1nc(CN2CCN(S(=O)(=O)c3ccc(Cl)s3)CC2)no1)N1CCCC1 | -3.14%
21 | CC1=C(C(=O)OCC(Cl)(Cl)Cl)C(c2cccc(Br)c2)NC(=O)N1 (stereo not drawn) | 2.7%
22 | Cc1cc(Cl)ccc1OCC(=O)Nc1ccc(S(N)(=O)=O)cc1 | 0.0504%
23 | COc1ccc(-c2c(C)nn3c(O)cc(Cc4ccccc4)nc23)cc1OC | -4.78%
24 | OC1O[C@@H](COCc2ccccc2)[C@H](OCc2ccccc2)[C@@H](OCc2ccccc2)[C@H]1O (stereo partly drawn) | 2.17%
25 | c1csc(CN2CCN(Cc3ccc4c(c3)OCO4)CC2)c1 | -1.07%
26 | Brc1cccc(CNCc2ccc3c(c2)OCO3)c1 | 0.214%

Row | Structure (SMILES) | % Inhibition @ 10 uM
27 | Cc1nc2cccc(C(=O)NCc3ccccc3)c2o1 | 1.03%
28 | COCCNC(=O)CN1C(=O)CSc2c1c(C)nn2-c1ccccc1 | -1.93%
29 | O=C(Nc1ncc(-c2ccccc2)s1)c1ccncc1 | -5.28%
30 | COc1ccc(CCn2c(=O)c3cccnc3n(CC(N)=O)c2=O)cc1OC | -5.27%
31 | Fc1ccccc1OCCN1CCOCC1 | 3.82%
32 | COc1ccc(C(=O)C2CC=CCN2Cc2ccccc2)cc1OC (stereo not drawn) | 2.48%
33 | CC(=O)Nc1ccc(S(=O)(=O)Nc2ccc(C(C)=O)cc2)cc1 | -5.1%
34 | COc1ccc(CNC(=O)c2ccc(C)o2)cc1 | -1.63%
35 | COc1ccc(C(=O)Nc2nnc(C(C)(C)C)s2)cc1 | -4.87%
36 | O=C(Cc1ccc2c(c1)OCO2)c1cc2c(cc1Br)OCO2 | -3.25%
37 | Cc1ccc2c(c1)-c1onc(C(=O)NCCC(C)C)c1CO2 | 1.14%
38 | O=C(NC1CCCCCC1)c1ccc(CS(=O)(=O)c2cccc(C(F)(F)F)c2)o1 | -3.09%
39 | CC(C)CC1=NN2C(=N)/C(=C/c3ccc(C(C)C)cc3)C(=O)N=C2S1 | 0.484%
40 | O=C1NC(=O)N(c2ccccc2)C(=O)/C1=C\Nc1ccccc1O | -0.996%
41 | Fc1ccc(-c2cc(-c3ccccc3)nc(N3N=C(c4ccccc4)CC3c3ccccc3)n2)cc1 (stereo not drawn) | 5.03%
42 | CC(C)OCCCNC(=O)c1cc2c(s1)-c1ccccc1S(=O)(=O)C2 | 1.22%
43 | CCCCOc1ccc(C2SCC(=O)Nc3c2c(O)nn3C(C)CCC)cc1 (stereo not drawn) | -2.21%
44 | COc1cccc(OC)c1C(=O)N1CCN(C(=O)c2cccnc2)CC1 | 6.12%
45 | COCCNC(=O)COc1ccc(C(C)(C)C)cc1Br | -2.76%
46 | C#CCN1C(=O)S/C(=C\C=C\c2ccc(N(C)C)cc2)C1=O | -3.33%
47 | O=C(Cc1noc2ccccc12)NCCN1CCN(Cc2ccccc2)CC1 | 3.71%
48 | C=CCNC(=O)CN(Cc1ccc(C)cc1)S(=O)(=O)c1ccc(C)cc1 | 3.79%
49 | CCOC(=O)c1c(C)nc2cc(C)ccn12 | -3.35%
50 | COc1ccc(CCC(C)NCCCN2CCOCC2)cc1 (stereo not drawn) | -2.03%
51 | CN(CC(=O)N1CCN(c2ccccn2)CC1)S(=O)(=O)c1cccc2nsnc12 | -1.43%
52 | Clc1ccc(CCNCc2ccccn2)c(Cl)c1 | 0.177%

Row | Structure (SMILES) | % Inhibition @ 10 uM
53 | O=C(Nc1ccc(F)cc1)c1ccc(Cl)c([N+](=O)[O-])c1 | 1.96%
54 | CCOC(=O)N1CCN(C(=O)Cc2c(C(=O)O)[nH]c3ccccc23)CC1 | 4.14%
55 | Cc1ccc(/N=C2\S/C(=C\c3cn(CC(=O)O)c4ccccc34)C(=O)N2C)cc1 | 21%
56 | CCOc1ccc(CCNC(=O)CCn2c(=O)c3cccn3c3cccnc32)cc1OCC | -3.91%
57 | Cc1c(Cl)cccc1N(CC(=O)Nc1ccc(Cl)cc1)S(C)(=O)=O | -5.15%
58 | CNC(=O)CC(NS(=O)(=O)c1ccc(Br)cc1)c1ccc(OC)cc1 (stereo not drawn) | 1.62%
59 | Cc1nc2cc(-c3ccccc3)nn2c(C)c1CCC(=O)NCCC(C)C | 2.93%
60 | Cc1cc(O)n2nc(N3C(=O)c4ccc(C(=O)O)cc4C3=O)nc2n1 | -3.08%
61 | O=S(=O)(c1ccccc1)c1nnn2c1nc(NCc1ccc3c(c1)OCO3)c1sccc12 | -2.85%
62 | COc1ccc(C(CC(=O)O)NC(=O)OC(C)(C)C)cc1 (stereo not drawn) | -5.14%
63 | CCOC(=O)N1CC(C)N(C(=O)OCC)CC1C (stereo not drawn) | -5%
64 | O=S(=O)(c1ccc(Oc2ccc(S(=O)(=O)N3CCCC3)cc2)cc1)N1CCCC1 | -2.17%
65 | CC(C)(C)C(=O)NCCN1CCN(C(=O)C(C)(C)C)CC1 | 1.65%
66 | Brc1ccc(-c2noc(C3CCCCC3)n2)cc1 | 3.9%
67 | Cc1sc(NC(=O)c2csc3ccccc23)c(C(N)=O)c1-c1ccccc1 | 3.86%
68 | O=c1sc2cc(Br)ccc2n1Cc1ccccc1 | -4.15%
69 | CCCNC(=O)CN(Cc1c(Cl)cccc1Cl)S(=O)(=O)c1ccc(Cl)cc1 | -2.85%
70 | CCn1c2ccccc2c2nnc(N3CCC(C)CC3)nc21 | -3.1%
71 | COc1ccc(-c2cc(C(F)(F)F)n3nc(C(=O)N4CCc5ccccc5C4)cc3n2)cc1 | -4.84%
72 | Cc1ccc(-c2nc(C(=O)N3CCCCC3c3cccnc3)c3n2CCCCC3)cc1 (stereo not drawn) | 5.13%
73 | O=C(NC1CCN(Cc2ccccc2)CC1)c1cc(-c2ccc(Cl)cc2)n[nH]1 | -3.12%
74 | O=C(c1ccccc1S(=O)(=O)NCc1ccccc1)N1CCOCC1 | -1.47%
75 | Nc1nc(O)c(Br)c(NCc2ccccc2)n1 | 0.565%
76 | CCOC(=O)c1c(NC(C)=O)no[n+]1[O-] | 2.09%
77 | O=C(NCc1ccc(F)cc1Cl)C1CCCN(c2nc3ccccc3o2)C1 (stereo not drawn) | -6.88%
78 | Cc1ccc(O)c(-n2cc3c(c2-c2ccccc2Cl)c(=O)n(C)c(=O)n3C)c1 | 0.366%

Row | Structure (SMILES) | % Inhibition @ 10 uM
79 | COc1ccc(Br)cc1CNC(=O)Cn1c(-c2ccccc2)cc(C(C)=O)c1C | 3.29%
80 | CCC1CCCCN1C(=O)C1CC(c2ccc(F)cc2)=NO1 (stereo not drawn) | 2.85%
81 | c1ccc2oc(-c3ccnc4ccccc34)nc2c1 | -4.24%
82 | Cc1ccc(NC(=O)COc2ccccc2C)cc1F | -2.28%
83 | CCOc1ccc2c(c1)ncn2Cc1ccccc1 | 3.05%
84 | CC(=O)c1cc(-c2ccc(F)cc2)n(CCC(=O)Nc2cc(C)[nH]n2)c1C | -7.35%
85 | CCCn1c2ccccc2c2cnn(CC(=O)O)c(=O)c21 | -1.51%
86 | O=C(Nc1ccc(F)cc1)c1ccccc1NC(=O)C1CCCCC1C(=O)O (stereo not drawn) | -4.63%
87 | OC1=C2C(=Nc3ccccc3NC2c2cccnc2)CC(c2ccc(Cl)cc2)C1 (stereo not drawn) | -0.958%
88 | CCn1c(-c2ccccc2)cs/c1=N\c1cccc(C)c1 | -14.4%
89 | Cc1nc(-c2ccccc2)c(CC(=O)O)s1 | -1.72%
90 | CC1(C)CC(=O)C2=C(C1)NC(=O)CC2c1ccc(C(C)(C)C)cc1 (stereo not drawn) | -3.21%
91 | CSc1nc(-c2ccccc2)nc(S)c1C(C)=O | 44.4%
92 | CCCCCCOc1cccc(N2C(=O)CC3CS(=O)(=O)CC32)c1 (stereo not drawn) | 1.35%
93 | CC1(C)CC(=O)C2=C(C1)c1c(ccc3ccccc13)NC2c1ccc(Cl)cc1Cl (stereo not drawn) | -12%
94 | Cc1cccc(-n2c(Cc3cccn3C)nnc2SCC(=O)N2CCOCC2)c1C | 3.75%
95 | Cc1[nH]nc2c1C(c1cccc(OCc3ccccc3)c1)C(C#N)=C(N)O2 (stereo not drawn) | -0.981%
96 | CC(C)Oc1ccc(CNC(=O)Cc2cccs2)cc1 | -1.7%
97 | C1=C(/C=C/c2ccc3c(c2)OCO3)CCN(Cc2ccccc2)C1 | -7.52%
98 | COc1cc(C(=O)NCCC(C)C)cc(OC)c1OC | 0.843%
99 | CC1CCc2c(sc(NC(=O)C3CC3)c2C#N)C1 (stereo not drawn) | -1.44%
100 | CCC(C)c1ccccc1OCC(=O)Nc1ccc(S(N)(=O)=O)cc1 (stereo not drawn) | -1.44%
101 | CN(Cc1ccccc1)C(=O)COc1ccc(C(C)(C)C)cc1 | 0.997%
102 | CCOc1ccccc1C1C2=C(O)CC(c3ccc(Cl)cc3)CC2=NC(C)=C1C(=O)OCCOC (stereo not drawn) | -2.98%
